Results: PubChem BioAssay AID493208 (National Center for Advancing Translational Sciences (NCATS), 2011)
Among all 44,000 compounds or so, about 340 (0.77%) were called active. Another 5% or so got no clear call; they are omitted. The call rests on the fitted dose curve; in most records, active means well fitted inhibition curve with a large enough effect; inconclusive means small, poorly fitted or top-dose-only effect; inactive means flat fitted curve, though single readings scatter. This is one part of the list.

Assay: Acumen qHTS Assay for Inhibitors of the mTORC1 Signaling Pathway in MEF (Tsc2-/-, p53-/-) Cells: Sytravon;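 further: plate controls were DMSO for no effect and rapamycin for full effect; nearly all actives have a fitted effect of over 50% in size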
Details: phospho-rpS6 immunofluorescence/PI, 24 h; series mostly up to 38.3 µM; activity change, negative = inhibition: at the top concentration
How it was run: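 Readout is phospho-S6 Alexa 488 signal normalized to PI per well, reported as % active cells with thresholds set from rapamycin (7.5 nM) and DMSO controls. Cells: Tsc2-/-, p53-/- MEFs, 24 hrs compound at 37 C; PI cell number serves as viability.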

Activity change, negative = inhibition, inactive:
CCOc1ccc(C(=O)Nc2ccc3nc(N(CC)CC)cc(C)c3c2)cc1 -9.88%
Cc1cc(N2CCC(C(=O)Nc3ccc(F)cc3F)CC2)n2nc(C)c(-c3ccc(Cl)cc3)c2n1 1.32%
Cn1c(=O)oc2cc(S(=O)(=O)NC(Cc3ccccc3)C(=O)Nc3ccc(F)c(Cl)c3)ccc21 (stereo not given) -2.02%
CCN(c1cccc(C)c1)S(=O)(=O)c1cc2c(cc1C)n(C)c(=O)c(=O)n2C -0.986%
CCOc1cccc2sc(NC(=O)c3ccc(S(=O)(=O)N4CCCCC4C)cc3)nc12 (stereo not given) 0.534%
O=C(c1cc(-c2ccc(Cl)cc2)n[nH]1)N1CCN(S(=O)(=O)c2ccc(Br)s2)CC1 -15.4%
CCOC(=O)c1c(C)[nH]c(C)c1S(=O)(=O)N1CCN(c2cc(Cl)ccc2C)CC1 3.75%
Cc1nnc(NC(=O)c2nc(SC(C)C)ncc2Cl)s1 1.85%
Clc1ccccc1Cn1c(-c2cccs2)nc2ccccc21 1.78%
CCOc1ccc(NC(=O)c2sc(-n3nc(C)c(Cc4ccc(Cl)cc4)c3C)nc2C)cc1 -1.57%
CCOC(=O)c1c(-c2ccc(C)cc2)csc1NC(=O)c1cc(-c2ccc(OC)cc2)on1 -1.78%
COc1ccc(CCNS(=O)(=O)c2c(C)nc3sc(C)cn3c2=O)cc1OC -10.7%
Cc1cc(Nc2cccc(C(=O)O)c2)n2nc(C)nc2n1 0.0442%
Cc1cccc(NC(=O)CN(C)S(=O)(=O)c2ccc3c(c2)c(=O)n(C)c(=O)n3C)c1C -12.6%
CCCn1c2ccccc2c2cnn(CC(=O)NCCN(CC)CC)c(=O)c21 -16.8%
COc1ccc(CCNC(=O)c2ccc3c(c2)N=C(C)c2ccccc2S3)cc1OC -24.1%
COc1ccc(-c2nc3ccccc3o2)cc1NC(=O)c1cccnc1 2%
COc1ccc(NC(=O)NC(C)c2c(-n3cccc3)sc(C)c2C)cc1OC (stereo not given) 0.147%
CCOc1c(Cl)cc(CNc2ccc3[nH]c(=O)[nH]c3c2)cc1OC -15.7%
CCN(CC)CCCNC(=O)c1ccc2c(c1)sc1nc(-c3ccc(C)cc3)cn12 5.52%
CCCCOc1ccc(C(=O)Nc2cc(-c3cn4cccnc4n3)ccc2OC)cc1 -5.64%
CCOC(=O)c1[nH]c2c(c1Cc1ccccc1)C(=O)CC(c1ccc(C(C)(C)C)cc1)C2 (stereo not given) -24.6%
CCOC(=O)C1CCN(C(=O)c2cnn(-c3ccc(F)cc3)c2-n2cccc2)CC1 1.17%
COc1ccc(C(=O)Nc2nc3c(s2)Cc2c(Br)ccc(OC)c2-3)cc1OC -2.18%
Cc1cc(C)cc(N(CC(=O)Nc2c(C)cc(C)cc2C)S(=O)(=O)c2c(C)nn(C)c2C)c1 0%
CCc1ccc(NC(=O)CSc2nnc(CC)c(CC)n2)cc1 6.64%
CCN(CC)S(=O)(=O)c1cc(-c2ccc(=O)n(C(C)C(=O)Nc3cccc(C#N)c3)n2)ccc1C (stereo not given) -3.27%
Cc1ccc(Cn2c(CN3CCC(C(=O)O)CC3)cc3ccccc32)cc1 -1.21%
COc1ccc(-c2noc(CSc3nnc(Cc4ccccc4)n3-c3ccc(F)cc3)n2)cc1 -5.44%
CN(CC(=O)Nc1ccc(F)cc1F)S(=O)(=O)c1cccc2nsnc12 2.86%
CC(C)NC(=O)C1CCCN(c2ncnc3onc(-c4ccc(F)cc4)c23)C1 (stereo not given) -0.992%
CCOc1ccccc1NC(=O)CCS(=O)(=O)c1ccc2c(c1)oc(=O)n2C -11.4%
CCOc1cc(-c2nnc(SCC(=O)NC3CCCCC3)nc2-c2ccc(OC)c(OCC)c2)ccc1OC -0.229%
CCOC(=O)C(C)Sc1nnc2cc(C)c3ccccc3n12 (stereo not given) -0.408%
COc1ccc2oc(-c3cccc(NC(=O)c4cc([N+](=O)[O-])ccc4N4CCOCC4)c3)nc2c1 -11.1%
COc1cc(C2c3c(-c4c(C)cc(C)cc4O)n[nH]c3C(=O)N2Cc2ccco2)cc(OC)c1OC (stereo not given) -14.4%
COc1ccc(Nc2ncc3c(n2)CCN(Cc2sccc2C)C3)c(OC)c1 0%
COc1ccc2c(CNCCc3ccco3)c(C(=O)O)n(Cc3ccc(C)cc3)c2c1 -0.983%
O=C(Cn1ncc2c3ccccc3n(Cc3ccccc3)c2c1=O)NCc1ccccn1 -0.29%
Cc1ccccc1CNC(=O)C1CCCCN1S(=O)(=O)c1ccc(F)cc1 (stereo not given) -2.7%
COc1ccc(C(CNC(=O)c2oc3cc(Br)ccc3c2C)N2CCCCC2)cc1 (stereo not given) 3.36%
O=[N+]([O-])c1ccc(S(=O)(=O)N2CCn3cccc3C2c2ccc(Br)cc2)cc1 (stereo not given) -4.6%
COc1ccc(OC)c(-c2cc(C(=O)Nc3c(C)nn(Cc4ccc(C)cc4)c3C)no2)c1 -19%
Cc1ccc(-n2nc(C(=O)N(C)c3ccc(C)c(C)c3)c3c4ccccc4n(C)c3c2=O)cc1 -6.35%
CCOC(=O)CN1C(=O)N(c2ccc(C)c(C)c2)S(=O)(=O)c2ccccc21 -5.9%
Cc1ccc(CN2CCC(CNC(=O)c3cnn(-c4ccc(C)cc4)c3C3CCN(C(=O)OC(C)(C)C)CC3)CC2)cc1 -1.96%
Cc1ccc(S(=O)(=O)N(CC(=O)Nc2cccnc2)c2cc(Cl)ccc2C)cc1 -18.1%
Cc1cc(=O)n(CC(=O)Nc2ccc(Cl)c(Cl)c2)c(-n2nc(C)cc2C)n1 -12.9%
CCOc1ccc(CNC(=O)C2CCCN(c3nn4cc(-c5ccc(OC)cc5)nc4s3)C2)cc1 (stereo not given) -6.38%
COc1ccc(NC(=O)CC2C(=O)N(c3ccccc3)C(=O)N2CCc2sccc2C)cc1 (stereo not given) -5.24%
Cc1cccc(NC(=O)CCCn2nc(C)c3c(C)n(-c4ccccc4)nc3c2=O)c1C -1%
CC(C)CCNc1nc2c(-c3ccccc3)nnn2c2ccccc12 -18%
Cc1ccc(C(=O)CSc2nc3cc(C(=O)NC4CCCC4)ccc3c(=O)n2CC2CCCO2)c(C)c1 (stereo not given) 6.26%
CCOc1ccc(CNC(=O)c2ccc(CSc3nc4ccncc4n3Cc3ccc(F)cc3)cc2)cc1 0.497%
COc1cccc(NC(=O)c2oc3ccccc3c2NC(=O)c2ccccc2C)c1 -0.563%
O=C(CC1N=C2c3ccccc3N=C(SCc3cccc(F)c3)N2C1=O)NCc1cccs1 (stereo not given) -4.08%
COC(=O)c1ccccc1NC(=O)CSc1n[nH]c(CC(C)C)n1 1.66%
Cc1nn(-c2ccccc2)c2nc(C3CC3)cc(C(=O)Nc3cccc(F)c3)c12 -10.2%
CCCCN(CCCC)CCCNC(=O)c1ccc2nc(N3CCCCC3)sc2c1 -0.0538%
Cc1ccc(CNC(=O)CCNS(=O)(=O)c2ccc3c(c2)CCCC(=O)N3)cc1 -4.8%
